{"source": "paper PMC6919601", "about": "“Identification of Plasmodium dipeptidyl aminopeptidase allosteric inhibitors by high throughput screening” (PLoS ONE, 2019)", "note": "Where “and” joins values, the source holds several entries; their conditions need not be identical. Equal values may be shown once. About 230 (0.21%) of roughly 110,000 compounds showed an effect of 50% or more. The list shows a part of the results.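 Also: 30 min substrate incubation versus DMSO and 10 µM JCP410 controls.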"}
{"molecular_target": "DPAP1 (Plasmodium falciparum, UniProt Q8IIJ9)", "sequence (Q8IIJ9 whole entry, looked up)": "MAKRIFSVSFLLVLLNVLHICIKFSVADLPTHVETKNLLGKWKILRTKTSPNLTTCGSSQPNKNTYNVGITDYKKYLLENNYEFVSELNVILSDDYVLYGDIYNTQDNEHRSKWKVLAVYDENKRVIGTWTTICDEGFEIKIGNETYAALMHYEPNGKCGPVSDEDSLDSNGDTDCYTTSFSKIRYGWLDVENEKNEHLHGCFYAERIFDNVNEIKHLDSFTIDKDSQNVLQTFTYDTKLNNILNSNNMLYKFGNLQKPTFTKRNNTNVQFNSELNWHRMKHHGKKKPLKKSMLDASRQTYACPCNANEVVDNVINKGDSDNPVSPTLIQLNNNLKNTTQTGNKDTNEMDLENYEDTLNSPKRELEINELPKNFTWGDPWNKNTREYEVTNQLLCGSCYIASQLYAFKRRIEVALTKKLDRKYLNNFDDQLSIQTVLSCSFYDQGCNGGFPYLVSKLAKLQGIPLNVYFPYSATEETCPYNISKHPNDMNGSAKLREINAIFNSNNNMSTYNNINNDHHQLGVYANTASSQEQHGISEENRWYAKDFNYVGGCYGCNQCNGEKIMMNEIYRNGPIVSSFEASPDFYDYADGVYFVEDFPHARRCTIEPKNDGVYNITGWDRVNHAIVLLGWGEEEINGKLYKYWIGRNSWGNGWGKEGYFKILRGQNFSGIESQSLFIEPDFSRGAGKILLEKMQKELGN", "assay": "primary screen, percent inhibition; read by cleavage of a fluorogenic dipeptide substrate; higher = more effect of the substance", "set-up": "species or system P. falciparum D10 trophozoite lysates; single well"}
{"molecule": "COc1cccc2cc(-c3cn(-c4ccc(F)c(F)c4)c(S)n3)c(=O)oc12", "% Inhibition @ 10 uM": "0.4%"}
{"molecule": "CSc1nc2sc3c(c2c2nnc(S)n12)CCN(C)C3", "% Inhibition @ 10 uM": "6.39%"}
{"molecule": "OCCN(CC#CC(O)(c1ccccc1)C1CCCC1)CCO", "note": "(stereo not drawn)", "% Inhibition @ 10 uM": "-6.95%"}
{"molecule": "Cc1[nH]c2ccccc2c1C(c1ccncc1)N1CCN(C)CC1", "note": "(stereo not drawn)", "% Inhibition @ 10 uM": "-0.968% and -4.12%"}
{"molecule": "Cn1c(SCC(=O)Nc2nccs2)nc2c(c1=O)SCC2", "% Inhibition @ 10 uM": "3.11%"}
{"molecule": "COc1ccc(OC)c(-c2sccc2CC(=O)O)c1", "% Inhibition @ 10 uM": "-0.0735%"}
{"molecule": "CCc1ccccc1NC(=O)c1ccco1", "% Inhibition @ 10 uM": "-1.92%"}
{"molecule": "Cc1ccc(-c2c(C)sc(NC(=O)c3ccnn3C)c2C#N)cc1", "% Inhibition @ 10 uM": "-7.55%"}
{"molecule": "O=C(O)CCC(=O)Nc1cccc2cccnc12", "% Inhibition @ 10 uM": "3.78%"}
{"molecule": "O=C1c2ccccc2-c2c(-c3ccccc3)sc(=O)n21", "% Inhibition @ 10 uM": "-4.52%"}
{"molecule": "FC(F)(F)c1cc(-c2cccs2)n2nc(Cc3ccccc3)c(-c3ccccc3)c2n1", "% Inhibition @ 10 uM": "1.4%"}
{"molecule": "Cc1cc(C)cc(NC(=O)c2ccc(CSc3ncnc4[nH]cnc34)cc2)c1", "% Inhibition @ 10 uM": "-4.52%"}
{"molecule": "CCOc1ccc(NC(=O)C2=C(C)NC(=O)NC2c2ccc(N(C)C)cc2)cc1", "note": "(stereo not drawn)", "% Inhibition @ 10 uM": "-3.5%"}
{"molecule": "CC(CCc1ccccc1)NC(=O)CCN1N=C(c2ccccc2)CCC1=O", "note": "(stereo not drawn)", "% Inhibition @ 10 uM": "-6.4%"}
{"molecule": "COc1cc(C(CC(=O)NCCCN2CCCC2)N2Cc3ccccc3C2=O)cc(OC)c1OC", "note": "(stereo not drawn)", "% Inhibition @ 10 uM": "3.31%"}
{"molecule": "Cc1ccc(NC(=O)/C(=C\\c2cccnc2)NC(=O)c2ccc(C)cc2)cc1", "% Inhibition @ 10 uM": "2%"}
{"molecule": "CC(C)n1cc(NC(=O)c2ccc(F)cc2)cn1", "% Inhibition @ 10 uM": "3.66%"}
{"molecule": "Cc1ccc(NC(=O)c2sc(N)nc2-c2ccc([N+](=O)[O-])cc2)c(C)c1", "% Inhibition @ 10 uM": "0.215%"}
{"molecule": "COc1ccc(S(=O)(=O)Nc2ccccc2Cl)cc1", "% Inhibition @ 10 uM": "5.06%"}
{"molecule": "N#C/C(=C\\c1cccs1)c1nc(-c2ccc(-c3ccccc3)cc2)cs1", "% Inhibition @ 10 uM": "3.06%"}
{"molecule": "CCc1ccc(C(C)NC(=O)Nc2ccccc2C)cc1", "note": "(stereo not drawn)", "% Inhibition @ 10 uM": "7.04%"}
{"molecule": "N#CCNC(=O)[C@H](Cc1ccccc1F)NC(=O)c1ccccc1", "% Inhibition @ 10 uM": "-1.83%"}
{"molecule": "CCCCOc1ccc(C(=O)Nc2nonc2-c2ccc(OCC)c(OCC)c2)cc1", "% Inhibition @ 10 uM": "-1.47%"}
{"molecule": "CC(=O)Nc1ccc(C2Nc3ccccc3-c3cc(C)nn32)cc1", "note": "(stereo not drawn)", "% Inhibition @ 10 uM": "-4.75%"}
{"molecule": "O=C(Nc1cccc2c(NC(=O)C3CC3c3ccccc3)cccc12)C1CC1c1ccccc1", "note": "(stereo not drawn)", "% Inhibition @ 10 uM": "-4.35%"}
{"molecule": "CC1=CC(C)C(CNCCCN(C)C)C(C)C1", "note": "(stereo not drawn)", "% Inhibition @ 10 uM": "0.162%"}
{"molecule": "O=C(O)CCS(=O)(=O)c1ccc(Br)cc1", "% Inhibition @ 10 uM": "6.33%"}
{"molecule": "CCCCCn1c(=O)c(C(=O)Nc2ccccc2N)c(O)c2ccccc21", "% Inhibition @ 10 uM": "5.66%"}
{"molecule": "Cc1cc(C)c2c(N)c(C#N)sc2n1", "% Inhibition @ 10 uM": "4.12%"}
{"molecule": "CN1CCN(CCCNC(=O)C2CCC(CNc3nc(S)nc4ccccc34)CC2)CC1", "note": "(stereo not drawn)", "% Inhibition @ 10 uM": "12.1%"}
{"molecule": "COc1ccc(C2C(C#N)=C(N)OC3=C2C(=O)CCC3)cc1OC", "note": "(stereo not drawn)", "% Inhibition @ 10 uM": "-0.99%"}
{"molecule": "CNC(=O)CSc1cn(CC(=O)N2CCCC2)c2ccccc12", "% Inhibition @ 10 uM": "0.568%"}
{"molecule": "COC(=O)C1=C(C)OC(N)=C(C#N)C1c1ccc(Cl)c(Cl)c1", "note": "(stereo not drawn)", "% Inhibition @ 10 uM": "-6.78%"}
{"molecule": "O=C(CCN1C(=O)c2ccccc2C1=O)Nc1nc(-c2ccccc2)cs1", "% Inhibition @ 10 uM": "3.86%"}
{"molecule": "COc1ccc(OC)c(NC(=O)c2c(Br)cnn2C)c1", "% Inhibition @ 10 uM": "19%"}
{"molecule": "CCCCSC1=C(C#N)C(=O)NC(c2ccccc2O)S1", "note": "(stereo not drawn)", "% Inhibition @ 10 uM": "0.0289%"}
{"molecule": "Cn1c(=O)c2c(nc(SCC(=O)NC(C)(C)C)n2C)n(C)c1=O", "% Inhibition @ 10 uM": "3.99%"}
{"molecule": "O=C1C2CCCN2C(=O)N1CCN1CCN(c2cccc(Cl)c2)CC1", "note": "(stereo not drawn)", "% Inhibition @ 10 uM": "-0.0619%"}
{"molecule": "Cc1ccc(C2=NN(C(=O)C3CCCO3)C(c3ccccc3F)C2)cc1", "note": "(stereo not drawn)", "% Inhibition @ 10 uM": "3.01%"}
{"molecule": "CC(NC(=O)c1cc2ccccc2oc1=O)c1ccccc1", "note": "(stereo not drawn)", "% Inhibition @ 10 uM": "1.25%"}
{"molecule": "Cc1ccc2c(c1)[C@@H]1CN(C)CC[C@@H]1N2C(=O)CCCN1C(=O)c2ccccc2C1=O", "% Inhibition @ 10 uM": "3.57%"}
{"molecule": "Cc1ccc(NC(=O)C2C(=O)N(C)c3ccccc32)cc1", "note": "(stereo not drawn)", "% Inhibition @ 10 uM": "40.2%"}
{"molecule": "COC(=O)c1sccc1NC(=S)N1CCCC(C)C1", "note": "(stereo not drawn)", "% Inhibition @ 10 uM": "-5.77%"}
{"molecule": "COC(=O)c1ccc(Cn2nc(-c3ccccc3)ccc2=O)cc1", "% Inhibition @ 10 uM": "2.41%"}
{"molecule": "CCS(=O)(=O)c1nc(S(=O)(=O)c2ccc(Cl)cc2)c(N2CCOCC2)s1", "% Inhibition @ 10 uM": "-2.25%"}
{"molecule": "CCOc1ccc(C(=O)NCCCN(C)C)cc1", "% Inhibition @ 10 uM": "-4.75%"}
{"molecule": "CCOc1ccc(N(C(C)C(=O)N2CCN(C)CC2)S(C)(=O)=O)cc1", "note": "(stereo not drawn)", "% Inhibition @ 10 uM": "-0.992%"}
{"molecule": "O=C(Nc1ccc(N2CCOCC2)cc1)c1ccccc1", "% Inhibition @ 10 uM": "0.431%"}
{"molecule": "CCCC1=NN(C(=O)c2cccc(OC)c2)C(O)(C(F)(F)F)C1", "note": "(stereo not drawn)", "% Inhibition @ 10 uM": "8.75%"}
{"molecule": "CSC1=N/C(=C\\c2cn(C)c3ccccc23)C(=O)N1C", "% Inhibition @ 10 uM": "0.76%"}
{"molecule": "Cc1cc(C(=O)N2CCN(c3cccc(C)c3C)CC2)ccc1[N+](=O)[O-]", "% Inhibition @ 10 uM": "-4.03%"}
{"molecule": "O=C(c1cccc(Cl)c1)N1CCN(c2cccc(Cl)c2)CC1", "% Inhibition @ 10 uM": "-3.74%"}
{"molecule": "Cn1c(=O)n(C)c2cc(NC(=O)c3cccs3)ccc21", "% Inhibition @ 10 uM": "-2.67%"}
{"molecule": "CCn1c2ccccc2c2cc(CN(C)CC(O)c3ccccc3)ccc21", "note": "(stereo not drawn)", "% Inhibition @ 10 uM": "-7.18%"}
{"molecule": "O=C1C2CC=C(Cl)CC2C(=O)N1c1ccc(O)cc1", "note": "(stereo not drawn)", "% Inhibition @ 10 uM": "1%"}
{"molecule": "OC(CN1CCOCC1)c1ccc(C2CCCC2)cc1", "note": "(stereo not drawn)", "% Inhibition @ 10 uM": "-5.07%"}
{"molecule": "COc1cc2c(C(=O)N3CCCCC3C)cn(C)c(=O)c2cc1OC", "note": "(stereo not drawn)", "% Inhibition @ 10 uM": "-0.228%"}
{"molecule": "Cc1ccc(C2=NN3C(C2)c2ccccc2OC3c2ccc(O)cc2)cc1", "note": "(stereo not drawn)", "% Inhibition @ 10 uM": "19.8%"}
{"molecule": "NC(=O)C1CCN(C(=O)c2cnn(-c3ccccc3)c2-n2cccc2)CC1", "% Inhibition @ 10 uM": "0.137%"}
{"molecule": "COc1cccc(-n2ccc(OC)c2SC)c1", "% Inhibition @ 10 uM": "3.8%"}
{"molecule": "Cc1ccc(-c2cc(C(=O)NC3=NCCS3)c3ccccc3n2)s1", "% Inhibition @ 10 uM": "6.7%"}
{"molecule": "Cc1cc(C)nc(N2C(=O)CC(C(=O)O)N=C2NCCc2c[nH]c3ccccc23)n1", "note": "(stereo not drawn)", "% Inhibition @ 10 uM": "7.95%"}
{"molecule": "COC(=O)C1=C(C)N(CC(C)C)C(=O)/C1=C\\c1ccc(OCc2ccccc2)cc1", "% Inhibition @ 10 uM": "0.131%"}
{"molecule": "O=C(O)C1C(C(=O)O)C2C=CC1C21CC1", "note": "(stereo not drawn)", "% Inhibition @ 10 uM": "-0.0217%"}
{"molecule": "O=C1N=C(N2CCN(c3ccccc3)CC2)S/C1=C\\c1ccccc1O", "% Inhibition @ 10 uM": "34.9%"}
{"molecule": "Cc1cc2c(Cc3ccccc3)nnc(O)c2c(O)n1", "% Inhibition @ 10 uM": "1.08%"}
